{
  "source": "the supplement of paper PMC8728848",
  "test_in_all_cases": "glycan array binding signal (z-score within array); higher = stronger binding",
  "settings_in_all_cases": "glycan notation: IUPAC condensed, linker removed",
  "key": {"[1]": {"target": "Fuc(a1-2)Gal(b1-4)GlcNAc(b1-3)Gal(b1-4)GlcNAc(b1-2)Man(a1-3)[Fuc(a1-2)Gal(b1-4)GlcNAc(b1-3)Gal(b1-4)GlcNAc(b1-2)Man(a1-6)]Man(b1-4)GlcNAc(b1-4)GlcNAc", "procedure,_shortened": "(§1)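 Glycan array data came from 3228 arrays in the Consortium for Functional Glycomics database, and only arrays with an available protein sequence were kept. Glycan names were put into IUPAC-condensed notation, and columns mapping to the same glycan were averaged. The binding signal is a within-array Z-score, averaged across arrays of one protein sequence run at different concentrations or buffers and across linkers. A negative Z-score can be read as non-binding.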"}, "[2]": {"target": "Fuc(a1-2)Gal(b1-4)GlcNAc(b1-3)Gal(b1-4)GlcNAc(b1-3)Gal(b1-4)GlcNAc", "procedure,_shortened": "as §1"}, "[3]": {"target": "Fuc(a1-2)Gal(b1-4)GlcNAc(b1-3)GalNAc", "procedure,_shortened": "as §1"}, "[4]": {"target": "Fuc(a1-2)Gal(b1-4)GlcNAc(b1-3)[Fuc(a1-2)Gal(b1-4)GlcNAc(b1-6)]GalNAc", "procedure,_shortened": "as §1"}, "[5]": {"target": "Fuc(a1-2)Gal(b1-4)GlcNAc(b1-3)[Fuc(a1-3)[Gal(b1-4)]GlcNAc(b1-6)]Gal(b1-4)Glc", "procedure,_shortened": "as §1"}, "[6]": {"target": "Fuc(a1-2)Gal(b1-4)GlcNAc(b1-6)GalNAc", "procedure,_shortened": "as §1"}, "[7]": {"target": "Fuc(a1-2)Gal(b1-4)GlcNAc6S", "procedure,_shortened": "as §1"}, "[8]": {"target": "Fuc(a1-2)Gal(b1-4)[Fuc(a1-3)]GlcNAc", "procedure,_shortened": "as §1"}, "[9]": {"target": "Fuc(a1-2)Gal(b1-4)[Fuc(a1-3)]GlcNAc(b1-2)Man(a1-3)[Fuc(a1-2)Gal(b1-4)[Fuc(a1-3)]GlcNAc(b1-2)Man(a1-6)]Man(b1-4)GlcNAc(b1-4)[Fuc(a1-6)]GlcNAc", "procedure,_shortened": "as §1"}, "[10]": {"target": "Fuc(a1-2)Gal(b1-4)[Fuc(a1-3)]GlcNAc(b1-2)[Fuc(a1-2)Gal(b1-4)[Fuc(a1-3)]GlcNAc(b1-4)]Man(a1-3)[Fuc(a1-2)Gal(b1-4)[Fuc(a1-3)]GlcNAc(b1-2)Man(a1-6)]Man(b1-4)GlcNAc(b1-4)GlcNAc", "procedure,_shortened": "as §1"}, "[11]": {"target": "Fuc(a1-2)Gal(b1-4)[Fuc(a1-3)]GlcNAc(b1-3)Gal(b1-4)[Fuc(a1-3)]GlcNAc", "procedure,_shortened": "as §1"}, "[12]": {"target": "Fuc(a1-2)Gal(b1-4)[Fuc(a1-3)]GlcNAc(b1-3)Gal(b1-4)[Fuc(a1-3)]GlcNAc(b1-3)Gal(b1-4)[Fuc(a1-3)]GlcNAc", "procedure,_shortened": "as §1"}, "[13]": {"target": "Fuc(a1-2)Gal(b1-4)[Fuc(a1-3)]GlcNAc(b1-3)GalNAc", "procedure,_shortened": "as §1"}, "[14]": {"target": "Fuc(a1-2)Gal(b1-4)[Fuc(a1-3)]GlcNAc(b1-3)[Neu5Ac(a2-6)Gal(b1-4)GlcNAc(b1-6)]Gal(b1-4)Glc", "procedure,_shortened": "as §1"}, "[15]": {"target": "Fuc(a1-2)Gal3S(b1-4)GlcNAc", "procedure,_shortened": "as §1"}, "[16]": {"target": "Fuc(a1-2)Gal6S(b1-3)GlcNAc", "procedure,_shortened": "as §1"}, "[17]": {"target": "Fuc(a1-2)Gal6S(b1-3)GlcNAc6S", "procedure,_shortened": "as §1"}, "Fuc(a1-2)Gal6S(b1-4)Glc": {"target": "Fuc(a1-2)Gal6S(b1-4)Glc", "procedure,_shortened": "as §1"}, "[18]": {"target": "Fuc(a1-2)Gal6S(b1-4)Glc6S", "procedure,_shortened": "as §1"}, "Fuc(a1-2)[Gal(a1-3)]Gal": {"target": "Fuc(a1-2)[Gal(a1-3)]Gal", "procedure,_shortened": "as §1"}, "[19]": {"target": "Fuc(a1-2)[Gal(a1-3)]Gal(b1-3)GalNAc", "procedure,_shortened": "as §1"}, "[20]": {"target": "Fuc(a1-2)[Gal(a1-3)]Gal(b1-3)GalNAc(b1-3)Gal(a1-4)Gal(b1-4)Glc", "procedure,_shortened": "as §1"}, "[21]": {"target": "Fuc(a1-2)[Gal(a1-3)]Gal(b1-3)GlcNAc", "procedure,_shortened": "as §1"}, "[22]": {"target": "Fuc(a1-2)[Gal(a1-3)]Gal(b1-3)GlcNAc(b1-2)Man(a1-3)[Fuc(a1-2)[Gal(a1-3)]Gal(b1-3)GlcNAc(b1-2)Man(a1-6)]Man(b1-4)GlcNAc(b1-4)GlcNAc", "procedure,_shortened": "as §1"}, "[23]": {"target": "Fuc(a1-2)[Gal(a1-3)]Gal(b1-3)GlcNAc(b1-2)Man(a1-3)[Fuc(a1-2)[Gal(a1-3)]Gal(b1-3)GlcNAc(b1-2)Man(a1-6)]Man(b1-4)GlcNAc(b1-4)[Fuc(a1-6)]GlcNAc", "procedure,_shortened": "as §1"}, "[24]": {"target": "Fuc(a1-2)[Gal(a1-3)]Gal(b1-3)GlcNAc(b1-3)GalNAc", "procedure,_shortened": "as §1"}, "[25]": {"target": "Fuc(a1-2)[Gal(a1-3)]Gal(b1-3)GlcNAc(b1-6)GalNAc", "procedure,_shortened": "as §1"}, "[26]": {"target": "Fuc(a1-2)[Gal(a1-3)]Gal(b1-4)Glc", "procedure,_shortened": "as §1"}, "[27]": {"target": "Fuc(a1-2)[Gal(a1-3)]Gal(b1-4)GlcNAc", "procedure,_shortened": "as §1"}, "[28]": {"target": "Fuc(a1-2)[Gal(a1-3)]Gal(b1-4)GlcNAc(b1-2)Man", "procedure,_shortened": "as §1"}},
  "note": "The list shows a part of the results.",
  "data": [
    {"binder": "Als3-41 (Candida albicans) (protein) KTITGVFNSFNSLTWSNAATYNYKGPGTPTWNAVLGWSLDGTSASPGDTFTLNMPCVFKFTTSQTSVDLTAHGVKYATCQFQAGEEFMTFSTLTCTVSNTLTPSIKALGTVTLPLAFNVGGTGSSVDLEDSKCFTAGTNTVTFNDGGKKISINVDFERSNVDPKGYLTDSRVIPSLNKVSTLFVAPQCANGYTSGTMGFANTYGDVQIDCSNIHVGITKGLNDWNYPVSSESFSYTKTCSSNGIFITYKNVPAGYRPFVDAYISATDVNSYTLSYANEYTCAGGYWQRAPFTLRWTGYRNSDAGSNGIVIVATTRTVTDSTTAVTTLPFDPNRDKTKTIEILKPIPTTTITTSYVGVTTSYLTKTAPIGETATVIVD", "values": [
      {"measurement": "glycan array binding signal (z-score)", "setting": "[1]", "value": 0.118},
      {"measurement": "glycan array binding signal (z-score)", "setting": "[2]", "value": -0.193},
      {"measurement": "glycan array binding signal (z-score)", "setting": "[3]", "value": 0.751},
      {"measurement": "glycan array binding signal (z-score)", "setting": "[4]", "value": -0.11},
      {"measurement": "glycan array binding signal (z-score)", "setting": "[5]", "value": -0.356},
      {"measurement": "glycan array binding signal (z-score)", "setting": "[6]", "value": 0.356},
      {"measurement": "glycan array binding signal (z-score)", "setting": "[7]", "value": -0.229},
      {"measurement": "glycan array binding signal (z-score)", "setting": "[8]", "value": -0.148},
      {"measurement": "glycan array binding signal (z-score)", "setting": "[9]", "value": 0.333},
      {"measurement": "glycan array binding signal (z-score)", "setting": "[10]", "value": 0.707},
      {"measurement": "glycan array binding signal (z-score)", "setting": "[11]", "value": -0.291},
      {"measurement": "glycan array binding signal (z-score)", "setting": "[12]", "value": -0.37},
      {"measurement": "glycan array binding signal (z-score)", "setting": "[13]", "value": 0.462},
      {"measurement": "glycan array binding signal (z-score)", "setting": "[14]", "value": -0.377},
      {"measurement": "glycan array binding signal (z-score)", "setting": "[15]", "value": -0.305},
      {"measurement": "glycan array binding signal (z-score)", "setting": "[16]", "value": -0.047},
      {"measurement": "glycan array binding signal (z-score)", "setting": "[17]", "value": 0.433},
      {"measurement": "glycan array binding signal (z-score)", "setting": "Fuc(a1-2)Gal6S(b1-4)Glc", "value": -0.235},
      {"measurement": "glycan array binding signal (z-score)", "setting": "[18]", "value": -0.216},
      {"measurement": "glycan array binding signal (z-score)", "setting": "Fuc(a1-2)[Gal(a1-3)]Gal", "value": -0.266},
      {"measurement": "glycan array binding signal (z-score)", "setting": "[19]", "value": -0.028},
      {"measurement": "glycan array binding signal (z-score)", "setting": "[20]", "value": -0.1},
      {"measurement": "glycan array binding signal (z-score)", "setting": "[21]", "value": -0.197},
      {"measurement": "glycan array binding signal (z-score)", "setting": "[22]", "value": -0.265},
      {"measurement": "glycan array binding signal (z-score)", "setting": "[23]", "value": -0.313},
      {"measurement": "glycan array binding signal (z-score)", "setting": "[24]", "value": -0.174},
      {"measurement": "glycan array binding signal (z-score)", "setting": "[25]", "value": -0.078},
      {"measurement": "glycan array binding signal (z-score)", "setting": "[26]", "value": -0.193},
      {"measurement": "glycan array binding signal (z-score)", "setting": "[27]", "value": -0.296},
      {"measurement": "glycan array binding signal (z-score)", "setting": "[28]", "value": -0.195}
    ]}
  ]
}
